In US20250122202A1, “EGFR INHIBITOR, PREPARATION METHOD THEREFOR AND USE THEREOF” (SHANDONG NEW TIME PHARMACEUTICAL CO., LTD., priority 2021, published 2025):

Experiments:
[1] = test system: KC-0122:BaF3 EGFR-L858R/T790M/C797S; test: cells; details: KC-0122, 72 h, read-out: cell proliferation inhibition IC50 (μM) KC-0122, 72 h, CCK-8
[2] = test system: KC-0116:BaF3 EGFR-Del19/T790M/C797S; test: cells; details: KC-0116, 72 h, read-out: cell proliferation inhibition IC50 (μM) KC-0116, 72 h, CCK-8

Row | IC50 [2] [µM] | Structure (SMILES) | also measured
1 | < 0.1 | CN1CCN(c2ccc(Nc3nc(N[C@H]4CC[C@@H](CO)CC4)c4c(C(=O)c5ccc(F)cc5)c[nH]c4n3)cc2)CC1 [Example 60] | IC50 [1]: < 0.1 µM; IC50 ([1]; Table 5 numeric): 0.088 µM; IC50 ([2]; Table 5 numeric): 0.038 µM
2 | – | O=C(c1ccc(F)cc1)c1c[nH]c2nc(Nc3ccc(N4CCOCC4)cc3)nc(N[C@H]3CCN(S(=O)(=O)C4CC4)C3)c12 [Example 31] | IC50 [1]: 0.1 to 1 µM
3 | 0.1 to 1 | CN1CCN(c2ccc(Nc3nc(NC4CCCCC4O)c4c(C(=O)c5ccc(F)cc5)c[nH]c4n3)cc2)CC1 (centres unmarked) [Example 43] | IC50 [1]: 0.1 to 1 µM
4 | < 0.1 | COc1cc(N2CCN(C)CC2)ccc1Nc1nc(N[C@H]2CC[C@H](CO)CC2)c2c(C(=O)c3ccc(F)cc3)c[nH]c2n1 [Example 80] | –
5 | 0.1 to 1 | CCN(CC)CCNc1nc(Nc2ccc(N3CCN(C)CC3)cc2)nc2[nH]cc(C(=O)c3ccc(F)cc3)c12 [Example 12] | IC50 [1]: 0.1 to 1 µM
6 | 0.1 to 1 | CN1CCN(c2ccc(Nc3nc(NN4CCOCC4)c4c(C(=O)c5ccc(F)cc5)c[nH]c4n3)cc2)CC1 [Example 38] | –
7 | – | CN1CCN(c2ccc(Nc3nc(N[C@H]4CCCN(S(=O)(=O)C5CC5)C4)c4c(C(=O)c5ccc(F)cc5)c[nH]c4n3)cc2F)CC1 [Example 28] | IC50 [1]: 1 to 2 µM
8 | 0.1 to 1 | C=CC(=O)N1CC[C@H](Nc2nc(Nc3ccc(N4CCN(C)CC4)cc3)nc3[nH]cc(C(=O)c4ccccc4)c23)C1 [Example 33] | –
9 | < 0.1 | CC(C)N1CCC(Nc2nc(Nc3ccc(N4CCOCC4)cc3)nc3[nH]cc(C(=O)c4ccc(F)cc4)c23)CC1 [Example 99] | IC50 ([2]; Table 5 numeric): 0.076 µM
10 | 0.1 to 1 | CC(=O)N1CC[C@H](Nc2nc(Nc3ccc(N4CCN(C)CC4)cc3)nc3[nH]cc(C(=O)c4ccc(F)cc4)c23)C1 [Example 54] | –
11 | 0.1 to 1 | CN1CCN(c2ccc(Nc3nc(Nc4ccc(CO)nc4)c4c(C(=O)c5ccc(F)cc5)c[nH]c4n3)cc2)CC1 [Example 16] | –
12 | 0.1 to 1 | CN1CCN(c2ccc(Nc3nc(N[C@H]4CCN(S(=O)(=O)C5CC5)C4)c4c(C(=O)c5cccc(F)c5)c[nH]c4n3)cc2)CC1 [Example 34] | –
13 | 0.1 to 1 | CN1CCN(c2ccc(Nc3nc(Nc4cccc(CO)c4)c4c(C(=O)c5ccc(F)cc5)c[nH]c4n3)cc2)CC1 [Example 15] | –
14 | 0.1 to 1 | CN1CCN(c2ccc(Nc3nc(N[C@H]4CCN(S(=O)(=O)C5CC5)C4)c4c(C(=O)c5ccccc5)c[nH]c4n3)cc2)CC1 [Example 32] | –
15 | < 0.1 | CN1CCC(Nc2nc(Nc3ccc(N4CCOCC4)cc3)nc3[nH]cc(C(=O)c4ccc(F)cc4)c23)CC1 [Example 100] | –
16 | 0.1 to 1 | CN1CCN(c2ccc(Nc3nc(N[C@H]4CCN(S(=O)(=O)C5CC5)C4)c4c(C(=O)c5ccc(F)c(F)c5)c[nH]c4n3)cc2)CC1 [Example 36] | –
17 | 0.1 to 1 | CN1CCN(c2ccc(Nc3nc(N[C@H]4CC[C@H](N)CC4)c4c(C(=O)c5ccc(F)cc5)c[nH]c4n3)cc2)CC1 [Example 90] | –
18 | 0.1 to 1 | CN1CCN(c2ccc(Nc3nc(NN4CCCCC4)c4c(C(=O)c5ccc(F)cc5)c[nH]c4n3)cc2)CC1 [Example 39] | –
19 | < 0.1 | COc1cc(N2CCOCC2)ccc1Nc1nc(N[C@H]2CC[C@H](CO)CC2)c2c(C(=O)c3ccc(F)cc3)c[nH]c2n1 [Example 81] | IC50 ([2]; Table 5 numeric): 0.077 µM
20 | 0.1 to 1 | C=CC(=O)N1CC[C@H](Nc2nc(Nc3ccc(N4CCN(C)CC4)cc3)nc3[nH]cc(C(=O)c4cccc(F)c4)c23)C1 [Example 35] | –
21 | < 0.1 | O=C(c1ccc(F)cc1Cl)c1c[nH]c2nc(Nc3ccc(N4CCOCC4)cc3)nc(N[C@H]3CC[C@H](CO)CC3)c12 [Example 105] | IC50 ([2]; Table 5 numeric): 0.085 µM
22 | 0.1 to 1 | CN1CCC(n2cc(Nc3nc(N[C@H]4CC[C@H](CO)CC4)c4c(C(=O)c5ccc(F)cc5)c[nH]c4n3)cn2)CC1 [Example 111] | –
23 | < 0.1 | O=C(c1ccc(F)cc1)c1c[nH]c2nc(Nc3ccc(N4CCOCC4)c(F)c3)nc(N[C@H]3CC[C@H](CO)CC3)c12 [Example 82] | –
24 | 0.1 to 1 | COc1nn(C2CCN(C)CC2)cc1Nc1nc(N[C@H]2CC[C@H](CO)CC2)c2c(C(=O)c3ccc(F)cc3)c[nH]c2n1 [Example 113] | –

Like-named read-outs stand apart in the source and are kept apart here.
